This list was built around the results that the source calls inconclusive (neither active nor inactive); the mix of calls is not that of the screen. No potency is given beside an inconclusive call; the fits are too rough. Activity calls are given as the source filed them. Calls come from the whole dose curve; as a rule, active = well fitted inhibition curve with a large enough effect; inconclusive = small, poorly fitted or top-dose-only effect; inactive = flat fitted curve, though single readings scatter.
Test system: Trypanosoma brucei pyruvate kinase (TbPYK)
Test: qHTS of Trypanosoma Brucei Inhibitors: Orthogonal Assay for Cherry-picked Compounds; note: nearly all actives have a fitted effect of over 75% in size
Settings: recombinant TbPYK, ADP-Glo luminescence, 60 min; series mostly up to 76.9 µM
How it was run: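 ADP-Glo luminescence end-point, reporting ADP substrate left after TbPYK reaction. ADP 130 uM final; 60 min RT; buffer 50 mM TEA pH 7.2, 100 mM KCl, 10 mM MgCl2, 0.05% BSA, 0.01% Tween-20.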
Potency is the fitted concentration of half-maximal effect; tags give direction and shape of the fitted curve.

Row | Compound | Potency
1 | O=C1NC(=S)CN1c1ccccc1 | inconclusive [inhibitor, partial curve]
2 | C/C(Cn1nc([N+](=O)[O-])cc1C)=N\NC(=O)COc1c(Cl)cc(Cl)cc1Cl | inactive
3 | O=C(Nc1ccc(C(=O)N2CCCC2)cc1)c1ccccc1F | inactive
4 | O=C1NC(=O)/C(=C\c2ccc(O)cc2O)S1 | active: 28.2 µM
5 | Cc1nonc1C(=O)N/N=C/c1ccc(O)cc1O | inactive
6 | COc1cccc(NC(=O)CCC2CCN(C(=O)c3cncs3)CC2)c1 | inconclusive [inhibitor, partial curve]
7 | Oc1cc2c(cc1O)C1c3ccc(O)c(O)c3OCC1(O)C2 (centres undefined) | inconclusive [inhibitor, full curve]
8 | CCCCCCC(=O)N(O)C1CC(=O)N(c2ccc(F)cc2)C1=O (centres undefined) | inconclusive [inhibitor, single point]
9 | CCN(CC)c1ccc(N=C2C(=O)Nc3ccccc32)cc1 | inactive
10 | Nc1c(C(=O)Nc2ccc(Cl)cc2)sc2nc(N3CCOCC3)c3c(c12)CCCC3 | inconclusive [inhibitor, partial curve]
11 | CCc1ccc(N2CSC3=C(C#N)C(c4cccs4)CC(=O)N3C2)cc1 (centres undefined) | active: 2 µM
12 | O=C(O)c1ccc2nc3c(nc2c1)-c1ccccc1C3=O | inconclusive [inhibitor, partial curve]
13 | O=C(CSc1cccc2cccnc12)N1CCCC1 | inconclusive [inhibitor, partial curve]
14 | CC(=O)Oc1ccc(N2C(=O)C3C4C=CC(CO)(O4)C3C2=O)cc1 (centres undefined) | inconclusive [inhibitor, single point]

Reference: PubChem BioAssay AID720584 (National Center for Advancing Translational Sciences (NCATS), 2013)
